The whole screen tested about 310,000 compounds, of which about 2,200 (0.71%) showed an effect of 50% or more. Effects have a minus sign here. This is one part of the list.
The compounds below were run against human ether-à-go-go-related gene (hERG) potassium channel (human, UniProt Q12809) (assay: primary screen, population patch clamp on CHO cells stably expressing hERG).
Chain of human ether-à-go-go-related gene (hERG) potassium channel (Q12809 whole entry, looked up): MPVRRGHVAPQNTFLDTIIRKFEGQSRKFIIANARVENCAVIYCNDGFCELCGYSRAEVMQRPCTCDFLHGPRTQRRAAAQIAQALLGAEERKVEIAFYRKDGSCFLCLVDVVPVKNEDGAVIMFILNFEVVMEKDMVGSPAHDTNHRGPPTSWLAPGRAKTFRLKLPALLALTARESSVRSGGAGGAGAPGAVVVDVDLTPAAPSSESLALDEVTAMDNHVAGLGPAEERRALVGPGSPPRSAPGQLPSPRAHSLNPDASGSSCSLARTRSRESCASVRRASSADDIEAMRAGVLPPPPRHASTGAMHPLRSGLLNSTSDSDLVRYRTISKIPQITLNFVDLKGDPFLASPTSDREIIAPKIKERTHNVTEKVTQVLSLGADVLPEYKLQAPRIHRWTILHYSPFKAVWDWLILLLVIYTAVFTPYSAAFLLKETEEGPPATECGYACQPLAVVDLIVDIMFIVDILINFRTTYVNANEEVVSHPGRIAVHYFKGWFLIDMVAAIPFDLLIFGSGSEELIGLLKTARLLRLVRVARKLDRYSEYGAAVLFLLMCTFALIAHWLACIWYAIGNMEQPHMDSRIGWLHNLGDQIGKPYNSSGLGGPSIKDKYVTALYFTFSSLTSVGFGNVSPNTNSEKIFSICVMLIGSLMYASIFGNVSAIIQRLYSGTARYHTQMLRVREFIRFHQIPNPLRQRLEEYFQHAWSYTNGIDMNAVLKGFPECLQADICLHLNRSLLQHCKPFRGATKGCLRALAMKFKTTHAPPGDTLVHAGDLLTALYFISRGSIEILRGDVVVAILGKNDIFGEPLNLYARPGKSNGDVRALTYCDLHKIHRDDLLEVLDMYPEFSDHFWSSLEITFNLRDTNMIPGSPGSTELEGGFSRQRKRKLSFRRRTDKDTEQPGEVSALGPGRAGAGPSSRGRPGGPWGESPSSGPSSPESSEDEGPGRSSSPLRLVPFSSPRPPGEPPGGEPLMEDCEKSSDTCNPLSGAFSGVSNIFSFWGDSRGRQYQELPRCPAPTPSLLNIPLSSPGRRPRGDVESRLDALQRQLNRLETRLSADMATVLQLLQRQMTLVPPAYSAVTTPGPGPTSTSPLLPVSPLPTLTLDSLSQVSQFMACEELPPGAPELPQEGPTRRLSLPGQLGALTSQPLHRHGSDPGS

SMILES	hERG current change (%, negative = inhibition) at 1uM
CCOc1ccc2nc(N(CCCN(C)C)C(=O)c3ccc4c(c3)CCCC4)sc2c1.Cl	8.43%
CC(C)NC(=O)c1sc2c(c1C(=O)Nc1cccnc1)CCCC2	0.763%
CCC(C(=O)OCC(=O)Nc1ccc(OC)cc1OC)c1ccccc1 (centres unmarked)	1.24%
CC(=O)Nc1cccc(OCC(O)Cn2c(C)nc3ccccc32)c1 (centres unmarked)	7.94%
COc1ccc(Cl)cc1CSc1ncn[nH]1	10.5%
O=C(CCNC(=O)c1ccco1)Nc1ccccc1	8.86%
O=C(NCCC1=CCCCC1)c1ccc(F)cc1	6.69%
CCc1nc2cc(Cl)c(Cl)cc2[nH]1	6.03%
O=C(CSc1ncnc2nc[nH]c12)c1ccccc1	17.4%
O=C(O)CCC(=O)c1ccc2ccc3cccc4ccc1c2c34	14.1%
CCN(Cc1ccccc1)C(=O)CS(=O)(=O)c1ccccc1	0.823%
COc1ccc(C2(C)NC(=O)N(CC(=O)Nc3ccc(C)cc3Br)C2=O)cc1OC (centres unmarked)	9.71%
C=CCOc1c(Br)cc(/C=N\n2nnnc2N)cc1OC	2.84%
COc1ccc2c(c1)c(C(=O)N/N=C/c1cccc(O)c1)c(C)n2C	1.51%
O=C(NC1=NCCS1)c1ccc(Cl)c(S(=O)(=O)N2CCCC2)c1	10.5%
O=C1CC(c2ccccc2)CC(O)=C1C=NC1CCCCCC1 (centres unmarked)	12.8%
CCN1/C(=C2/SC(=S)N(NC(C)=O)C2=O)Sc2ccccc21	14.8%
COc1ccc(S(=O)(=O)N2CCN(C(=O)C3CC3)CC2)cc1Br	-5.19%
O=C(O)c1ccc(NC2=C(n3nnc4ccccc43)C(=O)c3ccccc3C2=O)cc1	2.14%
CCN(CC)S(=O)(=O)c1cc(NC(=O)CN2C(=O)NC3(CCCc4ccccc43)C2=O)ccc1C (centres unmarked)	7.67%
O=C(O)C(=O)O.OC(COC1CCCCC1)C[NH+]1CCCCC1 (centres unmarked)	10.5%
CCN1CCN(C(=S)c2ccc(OCC(=O)NCc3ccccc3)cc2)CC1	10.8%
O=C(NCCN1CCCCC1)Nc1ccc([N+](=O)[O-])cc1	8.5%

SMILES	hERG current change (%, negative = inhibition) at 1uM
COc1ccc(/C=C/C(=O)C2(O)CCCCC2)cc1	5.58%
O=C(O)c1cc(-c2ccc(-c3c(-c4ccc5c(c4)OCO5)noc3-c3ccsc3)cc2)nc2ccccc12	9.2%
CCC(C)[C@H]1COCCS(=O)(=O)N1Cc1ccccc1 (some centres unmarked)	7.03%
O=C(c1ccc(OC2CCN(C(=O)c3cccnc3)CC2)cc1)N1CCCCCC1	11.6%
CC1CC(C)CN(CCCNC(=O)c2ccc3c(SCC(=O)O)c4c(nc3c2)CCC4)C1 (centres unmarked)	14.9%
CC(C)CC(=O)NN(C)c1nc(-c2ccccc2)nnc1C(F)(F)F	14.7%
C=CCNC(=O)C(C(=O)OCC)C1CCCCC1 (centres unmarked)	-18.2%
Cn1c(CN2CCCCC2)nc2cc(NC(=O)c3cccc(Br)c3)ccc21	-20.1%
O=C(NCc1ccccn1)c1ccc(OC2CCN(Cc3ccccc3O)CC2)cc1	10.9%
COc1ccc(Cl)cc1N(CC(=O)N1CCCC1)S(C)(=O)=O	14.3%
Cc1onc(-c2ccccc2)c1C(=O)N1CCOC12CCN(c1cccc(F)n1)CC2	-3.6%
COc1ccc(CCNCc2ccc(SC)cc2)cc1	-39.3%
Cc1cccc(C(C(=O)NC2CCCC2)N(Cc2cccnc2)C(=O)c2csnn2)c1 (centres unmarked)	11.2%
COC(=O)c1cc(Cl)c(NC(=O)/C=C/c2ccc(Cl)cc2Cl)cc1OC	-0.34%
O=[N+]([O-])c1cccc(CN2CCN(c3ncccn3)CC2)c1	11.9%
COc1ccc(Cl)cc1NC(=O)C(C)N(C)Cc1cccc(Cl)c1Cl (centres unmarked)	3.57%
COc1ccc(N2CC(O)=C(c3nc4ccccc4s3)C2=N)c(OC)c1	0.0083%
O=c1[nH]c(=O)c2nc3ccccc3nc2[nH]1	2.78%
O=C(CCN1C(=O)S/C(=C\c2ccccc2)C1=O)Nc1ccc(S(=O)(=O)Nc2nccs2)cc1	7.83%
Cc1cc([N+](=O)[O-])ccc1N=Nc1c(N)[nH]n(-c2ccccc2)c1=O	15.2%
CCN(CC(=O)Nc1ccc(NC(C)=O)cc1)C(=O)Cc1coc2cc(C)c(C)cc12	4.07%
COc1ccc(OCC(=O)Nc2ccc3c(c2)CCC3)cc1	11.8%
S=C(NCCCN1CCOCC1)Nc1ccc(Cl)cc1	1.8%

SMILES	hERG current change (%, negative = inhibition) at 1uM
Cc1ccc(Nc2cnn(C34CC5CC(CC(CC(=O)O)(C5)C3)C4)c(=O)c2Cl)c(Cl)c1	16.5%
CN(CC(=O)Nc1ccc(S(=O)(=O)N(C)C)cc1)Cc1ccc(C(F)(F)F)cc1	11.8%
OC1(c2cccs2)CN(c2ccccc2)C2=[N+]1CCCC2.[Br-] (centres unmarked)	10.6%
CC1(CCC(=O)N2CCCC(Nc3ccc(F)cc3)C2)CC1 (centres unmarked)	4.38%
CCn1c(SCC(=O)N2c3ccccc3CCc3ccccc32)nnc1-c1ccc(OC)cc1	11.8%
O=[N+]([O-])c1ccc(NC(=S)N2CCN(c3ccccn3)CC2)cc1	6.94%
Cc1ccc(OCC(=O)Nc2ccc3c(c2)OCO3)c([N+](=O)[O-])n1	10.1%
CCOc1ccc(OCCCC(=O)O)cc1	-4.88%
Cc1c(NC(=O)COC(=O)c2ncc(Cl)c(Cl)c2Cl)c(=O)n(-c2ccccc2)n1C	9.8%
COc1ccc2c(c1)CCC1=C2NC(=S)NC1c1ccc(N(C)C)cc1 (centres unmarked)	11.7%
COC(=O)C1=C(c2cc3ccccc3o2)C[C@@H]2CC[C@H]1N2C(=O)NCCCOC(C)C	0.0739%
CCOCc1nnc(NC(=O)COC)s1	6.03%
Cc1ccc(S(=O)(=O)CCC(=O)c2ccc(O)cc2O)cc1	1.79%
COCCOC(=O)/C(C#N)=C/c1cn(Cc2ccccc2)nc1-c1cccnc1	-17.2%
CCOc1ccc(NC(=S)NCCCc2ccccc2)cc1	7.24%
Cc1ccc(CNC(=O)CSc2c3c(nc4ccc(Cl)cc24)CCCC3)o1	4.68%
CCCn1c(N)c(C(=O)CSc2n[nH]c(-c3ccccc3F)n2)c(=O)n(C)c1=O	-4.23%
CN1/C(=C/C(=O)c2ccc(Cl)cc2)Sc2cc3c(cc21)OCO3	8.95%
CCOc1ccc(-c2cc(N)n(S(=O)(=O)c3cccc4nsnc34)n2)cc1	4.69%
CCCCc1cc(=O)oc2cc(C)cc(OC(C)C(=O)NCC3CCC(C(=O)O)CC3)c12 (centres unmarked)	12.5%
OC(COC(c1ccccc1)c1ccccc1)CN1CCOCC1 (centres unmarked)	5.61%
COc1ccc(C(C(=O)NCCC(C)C)N(CCN2CCOCC2)C(=O)Cn2nnc3ccccc32)c(OC)c1 (centres unmarked)	7.79%
CCN1CCN(c2nc3c(C)cccn3c(=O)c2/C=C(\C#N)S(=O)(=O)c2ccc(Cl)cc2)CC1	5.85%

SMILES	hERG current change (%, negative = inhibition) at 1uM
COc1cc(NC(=O)C2=C(N3CCOCC3)/C(=C/c3ccc(Cl)cc3)CC2)cc(OC)c1OC	9.72%
COc1ccc(CC(=O)NCc2nn(-c3ccccc3)nc2C)cc1OC	11%
CCN1C(=O)CC(C(=O)O)SC1=Nc1ccc(OC)cc1 (centres unmarked)	10.1%
CN(C)CCCN(CCCNC(=O)/C=N/O)Cc1ccccc1	6.6%
O=C(CNS(=O)(=O)c1ccc(F)cc1)N1CCN(c2ccccc2)CC1	6.69%
CCCC1CC(C)(/C(C)=N\NC(N)=S)OC1=O (centres unmarked)	6.17%
COc1ccccc1/C=C1/C(=N/O)C2CCN1CC2	4.84%
CCCCn1c(O)c(C(C)=NCc2ccc3c(c2)OCO3)c(=O)[nH]c1=O	4.25%
Cc1cc(NC(=O)/C=C/c2ccc(F)cc2)n(-c2nc3ccccc3[nH]2)n1	3.2%
O=C(Nc1ccc(OC(F)(F)F)cc1)c1ccc2ccccc2n1	15.9%
CCCC(=O)C1=C(O)C(C(=O)OC)C(C)(C)CC1=NCCCCCC(=O)O (centres unmarked)	5.95%
O=C(O)C(Cc1ccccc1)N1Cc2ccccc2C1=O (centres unmarked)	8.5%
O=S(=O)(Nc1ccccc1)c1ccc(-c2csnn2)cc1	11.5%
COC(=O)c1ccccc1NC(=S)N1CCN(c2ccccc2)CC1	5.23%
CC(C)(C)CC(=O)NC(=S)Nc1ccccc1C(F)(F)F	-4.46%
CCN(CC)c1ccc(C=NCCc2ccc(S(N)(=O)=O)cc2)cc1	11.1%
COc1ccc(Cl)cc1Nc1nc(N)c2ccccc2n1.Cl	14%
CCOC(=O)C1C(C)=CC(=O)CC1c1ccco1 (centres unmarked)	19.2%
CN(C)S(=O)(=O)c1c(Cl)cccc1Cl	10.4%
CCCOc1ccc(C2C(=O)N(C3CCCCC3)CC(=O)N2CCCOCC)cc1OC (centres unmarked)	3.83%

Source: article PMC4336329 (PLoS ONE, 2015)
